Reference: publication PMC4336329 (PLoS ONE, 2015)
Screen size: about 310,000 compounds; about 2,200 (0.71%) showed an effect of 50% or more. Effects have a minus sign here. This is one part of the list.

What follows are compounds tested against human ether-à-go-go-related gene (hERG) potassium channel (human, UniProt Q12809) (assay: primary screen, population patch clamp on CHO cells stably expressing hERG).
human ether-à-go-go-related gene (hERG) potassium channel, sequence (Q12809 whole entry, looked up): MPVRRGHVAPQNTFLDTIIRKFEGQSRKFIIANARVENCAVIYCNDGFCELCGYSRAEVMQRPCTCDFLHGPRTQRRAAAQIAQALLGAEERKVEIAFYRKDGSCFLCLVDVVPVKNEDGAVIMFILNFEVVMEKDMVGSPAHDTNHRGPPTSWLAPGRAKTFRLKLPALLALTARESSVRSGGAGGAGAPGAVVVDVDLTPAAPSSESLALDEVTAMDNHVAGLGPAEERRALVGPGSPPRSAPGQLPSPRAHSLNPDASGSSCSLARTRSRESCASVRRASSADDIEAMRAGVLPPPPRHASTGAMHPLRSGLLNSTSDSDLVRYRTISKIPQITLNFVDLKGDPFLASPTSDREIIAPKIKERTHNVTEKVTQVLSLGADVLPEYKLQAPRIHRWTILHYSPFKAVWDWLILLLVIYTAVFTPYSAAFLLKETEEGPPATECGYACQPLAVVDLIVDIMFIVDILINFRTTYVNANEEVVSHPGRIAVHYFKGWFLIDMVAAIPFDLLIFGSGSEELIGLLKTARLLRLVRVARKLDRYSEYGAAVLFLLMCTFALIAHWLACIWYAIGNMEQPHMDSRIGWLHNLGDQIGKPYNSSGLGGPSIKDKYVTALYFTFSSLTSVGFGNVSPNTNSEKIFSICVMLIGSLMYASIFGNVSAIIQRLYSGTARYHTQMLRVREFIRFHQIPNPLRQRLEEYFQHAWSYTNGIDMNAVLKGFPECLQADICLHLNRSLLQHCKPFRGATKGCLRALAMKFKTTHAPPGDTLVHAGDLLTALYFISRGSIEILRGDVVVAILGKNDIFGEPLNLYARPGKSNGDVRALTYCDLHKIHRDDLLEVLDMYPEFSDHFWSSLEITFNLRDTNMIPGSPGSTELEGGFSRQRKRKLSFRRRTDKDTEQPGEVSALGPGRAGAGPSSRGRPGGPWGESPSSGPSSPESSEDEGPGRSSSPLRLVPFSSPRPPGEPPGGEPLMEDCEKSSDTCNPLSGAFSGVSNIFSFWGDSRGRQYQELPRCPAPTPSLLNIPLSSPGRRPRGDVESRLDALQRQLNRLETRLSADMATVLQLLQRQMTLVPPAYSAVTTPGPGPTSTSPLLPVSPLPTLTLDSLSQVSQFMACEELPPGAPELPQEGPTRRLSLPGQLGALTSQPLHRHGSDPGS

Row | SMILES | hERG current change (%, negative = inhibition) at 1uM [%]
1 | CC(=O)c1c(C)[nH]c(C(=O)CN2C(=O)NC(C)(c3ccc4c(c3)OCO4)C2=O)c1C (centres unmarked) | 6.27
2 | CCCC(=O)NC(c1ccc(OCC)cc1)c1ccc(OC)c(OC)c1 (centres unmarked) | 11.9
3 | O=C(CSc1nc2cc(Cl)ccc2s1)N1CCCc2ccccc21 | 3.83
4 | CN(CCC#N)C(=O)CC(Cc1ccccc1)C1CCOC(C)(C)C1 (centres unmarked) | 7.81
5 | Cc1ccc(C(=O)Nc2ccc(N3CCN(C(=O)c4ccco4)CC3)cc2)cc1 | 6.36
6 | Cc1ccc(C)c(NC(=S)N(CCc2ccncc2)C(C)C)c1 | -11.9
7 | O=C(COC(=O)c1ccc(-c2ccc([N+](=O)[O-])cc2)o1)NC(=O)NC12CC3CC(CC(C3)C1)C2 | 11.2
8 | COC(=O)CCC(=O)OC1(C)C(=O)C2=CN(CC(C)C)C(c3ccc(OC)cc3)=CC2=C(Br)C1=O (centres unmarked) | 7.2
9 | O=C(/C=C/c1ccc(Cl)cc1Cl)NCCSCc1ccccc1 | 4.86
10 | CCCNCc1cc(OC)c(OCC(=O)Nc2ccccc2)cc1Br.Cl | -14.3
11 | CCC(C)c1ccc(NC(=S)Nc2ccc(OC)cc2C)cc1 (centres unmarked) | -0.377
12 | O=c1[nH]c(SCCOc2cccc3ccccc23)nc2ccccc12 | 21.2
13 | Cc1ccc2c(c1)N(C(C)C(=O)NCCc1ccccc1)C(=O)CO2 (centres unmarked) | 12.1
14 | CC(NCC(=O)Nc1cc(S(=O)(=O)N2CCCCCC2)ccc1Cl)c1ccccc1.O=C(O)C(=O)O (centres unmarked) | 4.83
15 | S=C(Nc1ccc(N2CCOCC2)cc1)Nc1ccc2nc(-c3ccco3)c(-c3ccco3)nc2c1 | 5.05
16 | Cc1ccc(Cl)cc1Nc1nc(-c2sc(NC(=O)C(C)(C)C)nc2C)cs1 | -12.4
17 | Cc1nn(C)cc1S(=O)(=O)Nc1ccc2c(c1)OCCO2 | 6.99
18 | COc1ccc(N2CCN(C(=O)c3ccc(N(C)S(=O)(=O)c4ccc(C)cc4)cc3)CC2)cc1 | 2.36
19 | CC(C)=C1C(=O)NN(c2ccc(C)c(Cl)c2)C1=O | 17.7
20 | CCCCc1nc2cc(C(=O)N3CCCCC3C(=O)OC)ccc2o1 (centres unmarked) | 8.54
21 | Cc1cccc(N2CCN(C(=O)CCc3nc4ccccc4[nH]3)CC2C)c1 (centres unmarked) | 2.61
22 | CCOC(=O)c1c(C)[nH]c(C2=NNC(=Nc3ccc(OCC)cc3)SC2)c1C | 17.7
23 | COc1cccc(NS(=O)(=O)c2ccc3c(c2)NC(=O)C(C)C(=O)N3)c1 (centres unmarked) | 10
